The other results are listed elsewhere or left out.

B1: PhoQ; a variant is named by its letters at X, in order, P23837 (parent)
chain: MKKLLRLFFPLSLRVRFLLATAAVVLVLSLAYGMVALIGYSVSFDKTTFRLLRGESNLFYTLAKWENNKLHVELPENIDKQSPTMTLIYDENGQLLWAQRDVPWLMKMIQPDWLKSNGFHEIEADVNDTSLLLSGDHSIQQQLQEVREDDDDAEMTHSVAVNVYPATSRMPKLTIVVVDTIPVELKSSYMVWSWFIYVLSANLLLVIPLLWVAAWWSLRPIEALAKEVRELEEHNRELLNPATTRELTSLVRNLNRLLKSERERYDKYRTTLTDLTHSLKTPLXXLQXXLRSLRSEKMSVSDAEPVMLEQISRISQQIGYYLHRASMRGGTLLSRELHPVAPLLDNLTSALNKVYQRKGVNISLDISPEISFVGEQNDFVEVMGNVLDNACKYCLEFVEISARQTDEHLYIVVEDDGPGIPLSKREVIFDRGQRVDTLRPGQGVGLAVAREITEQYEGKIVAGESMLGGARMEVIFGRQHSAPKDE

The assay covers variants of B1. In words: enrichment ratio after two sorts for PhoP signalling (ratio (wild type AVST 3.29)); higher = more functional. Conditions: with PhoP (E. coli).
On to WTWL, for which the enrichment ratio is at most 0.25.
AICD: the enrichment ratio turned out to be 5.13.
Take HVWV: the enrichment ratio is at most 0.25.
GKWK: the enrichment ratio is at most 0.25.
Regarding THWD, the enrichment ratio was at most 0.25.
As for IEDN, the enrichment ratio is at most 0.25.
For the variant AHSG, the enrichment ratio amounted to 6.86.
With MVCI, the enrichment ratio was at most 0.25.
The same measure for ALAR: at most 0.25; for TVDC: at most 0.25.
Consider DPGS, for which the enrichment ratio is at most 0.25.
For the variant YAVN, the enrichment ratio was at most 0.25.
Turning to HFDH, the enrichment ratio was at most 0.25.
The value for ERGD was at most 0.25; that for YYPE was at most 0.25.
For GALV, the enrichment ratio came out at 9.65.
As for NFDM, the enrichment ratio is at most 0.25.
For YHDD, the enrichment ratio was at most 0.25.
For the variant DCHI, the enrichment ratio was at most 0.25.
The value for FSPQ was at most 0.25.
In the case of QNNH, the enrichment ratio is at most 0.25.
Consider QDSP, for which the enrichment ratio was at most 0.25.
For QSSR, the enrichment ratio was at most 0.25.
As for LSAP, the enrichment ratio is at most 0.25.
On to EIRP, for which the enrichment ratio is at most 0.25.
On to TWCH, for which the enrichment ratio was at most 0.25.
Consider LFSG, for which the enrichment ratio is at most 0.25.
With NEIN, the enrichment ratio was at most 0.25.
The same measure for IDGI: at most 0.25.
The value for DYAN was at most 0.25; that for PAYE was at most 0.25.
With LEFC, the enrichment ratio is 12.9.
As to WRHV, the enrichment ratio was at most 0.25.
For the variant PFWI, the enrichment ratio is at most 0.25.
The value for DSIV was at most 0.25.
The value for YHEG was at most 0.25; that for FMAD was at most 0.25.
Consider TGER, for which the enrichment ratio is at most 0.25.
As to FWHD, the enrichment ratio was at most 0.25.
For the variant MLMT, the enrichment ratio was at most 0.25.
The same measure for IQPF: at most 0.25; for KRIY: at most 0.25.
The value for FPLD was at most 0.25; that for HQRI was at most 0.25; that for LGSA was at most 0.25.
Take TNDD: the enrichment ratio is at most 0.25.
On to LLPA, for which the enrichment ratio is at most 0.25.
On to KIYT, for which the enrichment ratio is at most 0.25.
LERR: the enrichment ratio was at most 0.25.
The value for SVIA was 1.12; that for RVRQ was 1.66.
On to DNFG, for which the enrichment ratio is at most 0.25.
With ELVR, the enrichment ratio is at most 0.25.
For TGEP, the enrichment ratio is at most 0.25.
The same measure for YKTY: at most 0.25; for WTAG: at most 0.25.
Take YLHF: the enrichment ratio is at most 0.25.
On to RQQK, for which the enrichment ratio was at most 0.25.
The value for AMTN was 27.1; that for SYGM was at most 0.25.
For the variant KKHH, the enrichment ratio is at most 0.25.
Consider FNER, for which the enrichment ratio is at most 0.25.
Turning to ARCW, the enrichment ratio is at most 0.25.
On to IWTD, for which the enrichment ratio is at most 0.25.
For the variant WWHK, the enrichment ratio was at most 0.25.
In the case of RHKV, the enrichment ratio was at most 0.25.
On to PLLA, for which the enrichment ratio is at most 0.25.
With LLDC, the enrichment ratio was at most 0.25.
For TTME, the enrichment ratio turned out to be 7.69.
The same measure for RMTS: at most 0.25; for TPFS: at most 0.25; for NQFD: at most 0.25.
Consider ASNM, for which the enrichment ratio was 5.71.
In the case of EITK, the enrichment ratio is at most 0.25.
In the case of ALSK, the enrichment ratio stood at 2.03.
For NGAF, the enrichment ratio was at most 0.25.
Take DKGK: the enrichment ratio was at most 0.25.
The value for AGFF was at most 0.25.
The value for RQRT was at most 0.25; that for SLRH was at most 0.25.
The value for GNYT was at most 0.25; that for YNPH was at most 0.25; that for YKGP was at most 0.25.
Regarding DQAA, the enrichment ratio was at most 0.25.
Take NCHW: the enrichment ratio is at most 0.25.
Take KRNW: the enrichment ratio was at most 0.25.
The same measure for VGTR: at most 0.25; for KEPF: at most 0.25.
Take RKLW: the enrichment ratio is at most 0.25.
For HVDI, the enrichment ratio is at most 0.25.
With ASHH, the enrichment ratio is at most 0.25.
The same measure for HGAE: at most 0.25.
With SGDN, the enrichment ratio is at most 0.25.
With NWFV, the enrichment ratio was at most 0.25.
As for FLSF, the enrichment ratio was at most 0.25.
MHCV: the enrichment ratio is at most 0.25.
As to VMGM, the enrichment ratio is at most 0.25.
As for SPQK, the enrichment ratio was at most 0.25.
For the variant HDNC, the enrichment ratio is at most 0.25.
The value for NIST was at most 0.25; that for AYQP was at most 0.25.
In the case of MMNI, the enrichment ratio is at most 0.25.
For the variant LANP, the enrichment ratio was at most 0.25.
Regarding HRFK, the enrichment ratio was at most 0.25.
With ATNL, the enrichment ratio was determined as 5.25.
As to FFGC, the enrichment ratio is at most 0.25.
Consider VTRN, for which the enrichment ratio is at most 0.25.
The same measure for SNHM: 0.971; for QRSM: at most 0.25; for VVPN: 0.63.
On to IRQD, for which the enrichment ratio is at most 0.25.
Take RMNT: the enrichment ratio was at most 0.25.
The value for KTMA was at most 0.25; that for ERIQ was at most 0.25.
SFQE: the enrichment ratio is at most 0.25.
Consider GHKA, for which the enrichment ratio is at most 0.25.
As to PNQL, the enrichment ratio was at most 0.25.
Regarding TTIA, the enrichment ratio is 4.48.
Consider DLIK, for which the enrichment ratio was at most 0.25.
As for WWSY, the enrichment ratio was at most 0.25.
Take YTMQ: the enrichment ratio amounted to 0.469.
For the variant MDQI, the enrichment ratio was at most 0.25.
With SWDV, the enrichment ratio was at most 0.25.
The value for PTYV was at most 0.25.
Turning to WRSP, the enrichment ratio is at most 0.25.
With MNTK, the enrichment ratio was at most 0.25.
As for ARWE, the enrichment ratio was at most 0.25.
The value for LNGW was at most 0.25.
Take DHSF: the enrichment ratio is at most 0.25.
In the case of MHEW, the enrichment ratio is at most 0.25.
On to FWDR, for which the enrichment ratio was at most 0.25.
In the case of QPTC, the enrichment ratio was at most 0.25.
As for QCGI, the enrichment ratio was at most 0.25.
The same measure for RQCI: at most 0.25; for EDNV: at most 0.25; for PYMH: at most 0.25.
For the variant LSSV, the enrichment ratio was at most 0.25.
The same measure for PDSR: at most 0.25; for ICEY: at most 0.25; for PIGR: at most 0.25.
As for FCWH, the enrichment ratio was at most 0.25.
Take DLKS: the enrichment ratio is at most 0.25.
The same measure for YGDD: at most 0.25; for DIHQ: at most 0.25.
The same measure for DAPH: at most 0.25; for ASCH: 13.6.
Take TSKI: the enrichment ratio was at most 0.25.
Turning to FEYD, the enrichment ratio is at most 0.25.
As to HFYQ, the enrichment ratio was at most 0.25.
In the case of ACVF, the enrichment ratio worked out at 11.9.
The value for DNGA was at most 0.25; that for QSND was 1.9; that for HIPD was at most 0.25.

(Values after a collection of fitness landscapes (doi:10.1126/science.1257360).)
